# According to PubChem BioAssay AID1346428 (National Center for Advancing Translational Sciences (NCATS), 2018):
# Several values for one entry are separate records, joined by “and”; a condition that tells them apart may be missing. Identical values can stand only once. In all, about 48,000 compounds went through this assay and about 1,200 (2.5%) were called active. Another 2% or so got no clear call; they are omitted.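 The calls were made as follows: active = activation of at least 60% and not above a set upper limit (about 1 call in 100 departs from these limits); inconclusive = activation of 40% to 60%, or above that upper limit; inactive = activation under 40%.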 This is one part of the list.
# Biological target: Probable G-protein coupled receptor 32 (Homo sapiens) (UniProt O75388)
# UniProt O75388, sequence (O75388 whole entry, looked up): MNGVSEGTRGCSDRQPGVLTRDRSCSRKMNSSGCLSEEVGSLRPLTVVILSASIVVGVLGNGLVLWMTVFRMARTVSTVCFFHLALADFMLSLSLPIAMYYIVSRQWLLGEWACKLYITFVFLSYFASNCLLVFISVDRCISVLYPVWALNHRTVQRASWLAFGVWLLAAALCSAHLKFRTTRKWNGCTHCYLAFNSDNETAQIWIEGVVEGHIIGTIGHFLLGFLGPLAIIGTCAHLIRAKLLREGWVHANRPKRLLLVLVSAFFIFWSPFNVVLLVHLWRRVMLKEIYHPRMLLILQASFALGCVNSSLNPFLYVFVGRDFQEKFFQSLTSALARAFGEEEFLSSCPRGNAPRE
# Assay: qHTS for Agonists of Human Resolvin D1 Receptor DRV1; also: 0% is about no effect
# Conditions: CHO-K1 GPR32 beta-arrestin PathHunter luminescence, 90 min; at 76.9 µM; hits give high values; zero percent set by DMSO-only wells
# Method in brief: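 Readings come from a cell-based beta-arrestin complementation format: CHO-K1 GPR32 stable cells (2,500/well) treated 90 min with compounds, then beta-Gal substrate added for 1 h before chemiluminescence imaging.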
row,Compound,activation
1,COc1ccc2c3c1O[C@H]1[C@@H](O)C=C[C@H]4[C@@H](C2)N(C)CC[C@@]341,inactive: 12.9%
2,Cc1cccc2sc(NC(=O)c3cccn(Cc4ccccc4)c3=O)nc12,inactive: -4.67%
3,COc1ccc2[nH]cc(CCN)c2c1,inactive: -8.16%
4,O=C(CN1C(=O)CN=C(c2ccccc2)c2ccccc21)Nc1cccc(C(F)(F)F)c1,inactive: 33.7%
5,CCCC1=Nc2cc(C(=O)NC3CCC(C)CC3)ccc2Sc2ccccc21 (stereo unspecified),inactive: -14.3%
6,CC(C)(C)NCC(O)c1cc(Cl)c(N)c(C(F)(F)F)c1 (stereo unspecified),inactive: -3.65%
7,Cc1cc(NC(=O)c2cccn(Cc3ccccc3)c2=O)no1,inactive: -5.53%
8,Cc1ncc(CNC(=O)N(CCCl)N=O)c(N)n1,inactive: 9.97% and inactive: -1.7%
9,COc1cc(C[C@@H](C)N)c(OC)cc1C,inactive: -6.69%
10,CC(N)[C@H](O)c1ccc(O)c(O)c1 (stereo partly specified),inactive: 3.53%
11,CC(C)=CC1C(C(=O)OCN2C(=O)C3=C(CCCC3)C2=O)C1(C)C (stereo unspecified),inactive: 28.3%
12,CCCN(CCC)C(=O)Cc1c(-c2ccc(Cl)cc2)nc2ccc(Cl)cn12,inactive: -44.4%
13,Clc1cccc(N2CCNCC2)c1,inactive: -0.154%
14,Clc1ccc(CSC(Cn2ccnc2)c2ccc(Cl)cc2Cl)cc1 (stereo unspecified),inactive: -76.8%
15,Cc1cc(C)cc(OCC(=O)Nc2ccc(Cl)cc2C(=O)c2ccccc2)c1,inactive: -17.8%
16,Oc1c(Br)cc(Br)cc1Br,inactive: 22.3%
17,NCCc1cc(O)c(O)cc1O,inactive: -18.9%
18,NNc1ccccc1,inactive: -11%
19,C[C@]12Cc3cn4c(nc3C=C1CCC1C2CC[C@@]2(C)[C@H]1CC[C@@]2(O)C#N)nc1ccccc14 (stereo partly specified),inactive: -5.93%
20,COc1ccc(OCC(=O)N2CCN(Cc3cccc(OC)c3OC)CC2)cc1,inactive: -3.97%
21,CN(C)CCc1c[nH]c2ccc(O)cc12,inactive: -6.97%
22,CCOC(=O)c1ccc(NC(=O)c2sc3nc4c(cc3c2N)N2CCC4CC2)cc1,inactive: 20.2%
23,CCCC[N+]1(C)[C@@H]2CC(OC(=O)[C@H](CO)c3ccccc3)C[C@H]1[C@@H]1O[C@@H]12 (stereo partly specified),inactive: -4.34%
24,C=CCN(C1=NCCN1)c1c(Cl)cccc1Cl,inactive: 4.83%

row,Compound,activation
1,N#C/C(=C/c1ccc(O)c(O)c1)C(N)=S,inactive: -46%
2,CC[C@@]1(O)C(=O)OCc2c1cc1n(c2=O)Cc2cc3ccccc3nc2-1,inactive: 9.25%
3,CCCOC(=O)c1cncn1C(C)c1ccccc1 (stereo unspecified),inactive: -10%
4,O=C(Nc1ccc(Br)cc1C(=O)c1ccccc1)c1ccccc1,inactive: -9.25%
5,CCCOC(=O)Cc1ccc(OCC(=O)N(CC)CC)c(OC)c1,inactive: -6.14%
6,CC(CCc1ccccc1)NC(C)C(O)c1ccc(O)cc1 (stereo unspecified),inactive: -4.35% and inactive: -14%
7,OCCCBr,inactive: -4.1%
8,NC(=NCCC[C@H](N)C(=O)O)N[N+](=O)[O-],inactive: -6.67%
9,Cc1ccc(OCC(=O)Nc2ccc(Cl)cc2C(=O)c2ccccc2)cc1,inactive: -9.89%
10,CC1Sc2c(C(=O)O)c(=O)c3cc(F)c(N4CCNCC4)cc3n21 (stereo unspecified),inactive: -23.4%
11,Cc1c(C(=O)c2cccc3ccccc23)c2cccc3c2n1[C@H](CN1CCOCC1)CO3,inactive: -27.9%
12,O=S1(=O)N(Cc2ccccc2)CCCN1Cc1ccc(F)cc1Cl,inactive: -20.2%
13,N=C(N)c1ccc(CS(=O)(=O)F)cc1,inactive: -6.07%
14,CC(C)(N)Cc1ccccc1Cl,inactive: 15.9%
15,COC(=O)c1ccc(NC(=O)c2cccn(Cc3ccccc3C)c2=O)cc1,inactive: 2.45%
16,c1ccc2nc(N3CCNCC3)ccc2c1,inactive: 18.7%
17,Clc1ccc(CO/N=C(\Cn2ccnc2)c2ccc(Cl)cc2Cl)c(Cl)c1,inactive: -105%
18,O=C1NCN(c2ccccc2)C12CCN(CC1COc3ccccc3O1)CC2 (stereo unspecified),inactive: 7.83% and inactive: -20.4%
19,C[C@]12CC[C@H]3[C@@H](CCC4=CC(=O)CC[C@@H]43)[C@@H]1CC[C@@H]2OC(=O)CCc1ccccc1,inactive: 45.3%
20,Oc1ccc2c3c1O[C@H]1c4[nH]c5ccccc5c4C[C@@]4(O)C(C2)N(CC2CC2)CCC314 (stereo partly specified),inactive: -24.2%
21,Cc1ccc2c(c1)C1CN(C)CCC1N2 (stereo unspecified),inactive: 5.59%
22,CC(N)Cc1c[nH]c2ccc(OCc3cccs3)cc12 (stereo unspecified),inactive: -10.7%
23,CCC(=O)OC1(c2ccccc2)CCN(C)CC1,inactive: -3.39%
24,COc1ccc(OC)c(C(c2c(O)c3ccccc3oc2=O)c2c(C)n(C)n(-c3ccccc3)c2=O)c1 (stereo unspecified),inactive: 7.42%

row,Compound,activation
1,CCc1cccc(NC(=O)CN2C(=O)CN=C(c3ccccc3F)c3cc(Cl)ccc32)c1,inactive: -25%
2,CN1CCC(c2c[nH]c3ccc(O)cc23)CC1,inactive: 4.83%
3,CC(C)[C@@]1(NC(=O)[C@@H]2C[C@@H]3c4cccc5[nH]cc(c45)C[C@H]3N(C)C2)O[C@@]2(O)[C@@H]3CCCN3C(=O)[C@H](Cc3ccccc3)N2C1=O,inactive: -17.8%
4,CCN[C@@H](C)Cc1cccc(C(F)(F)F)c1,inactive: 6.1%
5,CNC(=O)NC(O)C(Cl)(Cl)Cl (stereo unspecified),inactive: -11.2%
6,NC(=O)CN1CC(O)CC1=O (stereo unspecified),inactive: -5.57%
7,CCOC(=O)NC(C)(C)Cc1ccc(Cl)cc1,inactive: 33%
8,CC(C)c1ccc(OCC(=O)N2CCN(CCc3ccncc3)CC2)cc1,inactive: -5.28%
9,COc1ccc(-n2c(/C=C\c3ccccc3F)nc3ccccc3c2=O)c(OC)c1,inactive: -23.5%
10,N#Cc1cc2c(nc1SCC(=O)Nc1ccc(C(F)(F)F)cc1)C1CCN2CC1,inactive: 20.7%
11,CSc1ccc(/C=C/c2nc3ccccc3c(=O)n2-c2cccc(Cl)c2C)cc1,inactive: -14.4%
12,Cc1ncc2n1-c1ccc(Cl)cc1C(c1ccccc1F)=NC2,inactive: -8.85%
13,O=C(O)c1cc(Oc2ccc(C(F)(F)F)cc2Cl)ccc1[N+](=O)[O-],inactive: -23%
14,Cc1cc(OCC(=O)N2CCN(CCc3ccncc3)CC2)ccc1Cl,inactive: 21.8%
15,NC(=O)c1ccc(OCC(O)CN2CC=C(c3ccc(F)cc3)CC2)cc1 (stereo unspecified),inactive: -3.8%
16,CC(C)=CC1C(C(=O)OCc2cccc(Oc3ccccc3)c2)C1(C)C (stereo unspecified),inactive: -0.0425%
17,Cc1ccc(NC(=O)N(Cc2ccc3c(c2)OCO3)C2CCN(Cc3ccccc3)CC2)cc1C,inactive: 0.503%
18,C[N+](C)(C)CC#CCN1CCCC1=O,inactive: -7.63%
19,Nc1ccc(Sc2ccc(N)cc2)cc1,inactive: -41%
20,Cc1nnc2n1-c1sc(CCc3ccc(CC(C)C)cc3)cc1C(c1ccccc1Cl)=NC2C (stereo unspecified),inactive: -45.6%
21,COc1ccc(CNC(=O)/C=C/c2ccc3[nH]cc(CCN(C)C)c3c2)cc1,inactive: 2.33%
22,C=CCC1(C(C)CC)C(=O)NC(=O)NC1=O (stereo unspecified),inactive: -0.21%
23,CCOc1ccc(CN(CCc2ccc3c(c2)OCO3)Cc2cc(OC)ccc2O)cc1,inactive: -39.7%
24,C[N+]1(CCF)[C@@H]2CC[C@H]1CC(OC(=O)C(O)(c1ccccc1)c1ccccc1)C2 (stereo partly specified),inactive: -5.87%

row,Compound,activation
1,Nc1ccncc1,inactive: 27.5% and inactive: 1.95%
2,O=C1CC[C@@]2(O)C3Cc4ccc(O)c5c4C2(CCN3CC2CC2)[C@H]1O5 (stereo partly specified),inactive: -1.09%
3,C[N+]1(C)CCOC(O)(c2ccc(-c3ccc(C4(O)C[N+](C)(C)CCO4)cc3)cc2)C1 (stereo unspecified),inactive: -1.79%
4,NC1(c2ccccc2)CCCCC1,inactive: -1.54%
5,O=C1c2ccccc2C(=O)C1C(=O)C(c1ccccc1)c1ccccc1,inactive: 17.7%
6,COc1ccc(-c2nc(CN3C(=O)CN=C(c4ccccc4)c4ccccc43)c(C)o2)cc1,inactive: -20.3%
7,CO[C@H]1CC=C2CCN3CCC4=C(CC(=O)OC4)[C@]23C1,inactive: 0.998%
8,Cc1cccc(-n2c(/C=C/c3c[nH]c4ccccc34)nc3ccccc3c2=O)c1,inactive: 8.45%
9,CSc1ccc(CN2CCN(C(=O)COc3cccc(C)c3)CC2)cc1,inactive: -12.1%
10,COc1ccc(OC)c(CC(C)N)c1 (stereo unspecified),inactive: 10.3%
11,Cc1cccc(Cn2cccc(C(=O)Nc3cc(C)on3)c2=O)c1,inactive: 39.2%
12,COc1ccc(C(=O)N2CCCC2=O)cc1,inactive: -7.12% and inactive: 11.6%
13,C=CCN1CCc2cccc3c2[C@H]1Cc1ccc(O)c(O)c1-3,inactive: 8.14%
14,Cc1[nH]c2ccc(O)cc2c1CCN,inactive: -5.66%
15,C#CCOC(C(=O)OCCN(C)C)(c1ccccc1)c1ccccc1,inactive: 1.59%
16,CCS(=O)(=O)Nc1cccc(C(=C2CCCCC2)c2cnc[nH]2)c1,inactive: -4.59%
17,CC[C@@H](C(N)=O)N1CCCC1=O,inactive: -0.941%
18,NCC(O)c1cc(O)c(O)cc1F (stereo unspecified),inactive: 10.8%
19,CCCCOC(=O)c1ccccc1C(=O)OCc1ccccc1,inactive: -25%
20,O=C(O)CCCc1ccc(N(CCCl)CCCl)cc1,inactive: 36.7% and inactive: 10.4%
21,C[C@H]1[C@@H]2Cc3ccc(O)cc3[C@@]1(C)CCN2C,inactive: 0.369%
22,O=c1[nH]c2ccccc2n1CCCN1CCC(n2c(=O)[nH]c3cc(Cl)ccc32)CC1,inactive: 35.3% and inactive: 6.65%
23,COP(=S)(OC)Oc1ccc(SC)c(C)c1,inactive: 22.2%
24,Cc1ccc(NC(=O)N(Cc2ccc3c(c2)OCO3)C2CCN(Cc3ccccc3)CC2)cc1Cl,inactive: -8.07%
